# Experimental data reported in PubChem BioAssay AID662 (National Center for Advancing Translational Sciences (NCATS), 2007).
# Screen size: about 71,000 compounds; about 1,800 (2.5%) were called active. Inconclusive results, whose numbers are uncertain, are shown with a selection of clear calls. Calls follow the shape of the dose curve; as a rule, active = well fitted activation curve with a large enough effect in the signal ratio, with a control signal flat (not every such curve was filed as active); inconclusive = small, poorly fitted or top-dose-only effect, or effect the other way, or a change in a side signal; inactive = flat fitted curve, though single readings scatter; the % refers to the signal ratio. Potencies of inconclusive entries are doubtful fits and often do not repeat.
# Experiment: Cell signaling CRE-BLA (Fsk stim); as to activity change, negative = inhibition: % of control where 0% means no effect
# Details: CHO CRE-bla reporter (cAMP response element driving beta-lactamase), forskolin EC10, beta-lactamase ratio; activity change, negative = inhibition: at 38.2 µM (top of the series) unless noted
# Procedure, shortened: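 CRE-bla CHO cells stimulated with EC10 NKH 477 (water-soluble forskolin) and compound titrations, 3 h at 37C; beta-lactamase read with CCF4 after 2 h at room temperature. Activity from 460/530 nm emission ratio, AC50 values for positive or negative modulation.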
# Potency is read from the fitted curve at half-maximal effect; tags tell the direction and shape of the fitted curve.
Structure (SMILES),"activity change, negative = inhibition",Potency
C[N+]12CCC(CC1)C(C#N)(N1CCOCC1)C2 (stereo not given),inconclusive: 0.286%,
Nc1ccc(Cl)cc1N,inactive: 2.47%,
CN(C(=O)Cc1ccc(Cl)c(Cl)c1)[C@H](CN1CCCC1)c1cccc(N=C=S)c1,,"inconclusive: 31.6 µM [falling, partial curve, poor fit]"
COc1ccc(C(CC(=O)N2CCC3(CC2)OCCO3)NS(=O)(=O)c2ccc(OC)cc2)cc1 (stereo not given),inconclusive: 13.7%,
CC(C)Oc1cccnc1N(C)C1CCN(Cc2ccccc2)CC1,inconclusive: -9.49%,
C=CCn1c(O)c(C(C)=NC2CC2)c(=O)[nH]c1=O,,"inconclusive: 1 µM [rising, partial curve]"
O=C(Cl)C(Cl)(Cl)Cl,inconclusive: -9.24%,
O=C1C2CCCN2C(c2ccc(Cl)c(Cl)c2)N1c1ccccn1 (stereo not given),inconclusive: -22.7%,
Cc1ccccc1-n1c(O)c(C=Nc2ccc(N(C)C)cc2)c(=O)[nH]c1=O,,"inconclusive: 10 µM [rising, single point]"
ClC1=C(Cl)C2(Cl)C3C4CC(C5OC45)C3C1(Cl)C2(Cl)Cl (stereo not given),inconclusive: 19.2%,
C[C@H]1CCC[C@@H](O)CCC/C=C/c2cc(O)cc(O)c2C(=O)O1,,"inconclusive: 3.16 µM [falling, single point]"
COCCOC(=O)C1=C(N)Oc2c(c(=O)oc3ccccc23)C1c1ccncc1 (stereo not given),,"inconclusive: 10 µM [rising, partial curve]"
O=C(C(Cc1ccccc1)NS(=O)(=O)c1cccc2nsnc12)N1CCC2(CC1)OCCO2 (stereo not given),inconclusive: 20.2%,
CN1CCc2cc3c(cc2[C@@H]1O)OCO3,,"inconclusive: 6.31 µM [rising, partial curve]"
Cc1cc(N=Nc2ccccc2C)ccc1N,inactive: -14%,
COC1(CS(=O)c2ccccc2)CCN(CCc2c[nH]c3ccc(F)cc23)CC1 (stereo not given),inactive: -23.5%,
COc1cc(CCN)c(OC)c(OC)c1,inactive: 3.63% [at 7.6 µM],
C=CCN1CC[C@@]23c4c5ccc(O)c4O[C@H]2/C(=N\N=C2/CC[C@@]4(O)[C@H]6Cc7ccc(O)c8c7[C@@]4(CCN6CC=C)[C@@H]2O8)CC[C@]3(O)[C@@H]1C5,inconclusive: -23.9%,
Cc1nc2cc(C(F)(F)F)ccc2n1C1CCN(Cc2nnnn2Cc2ccc3c(c2)OCO3)CC1,inconclusive: -23.6%,
CC(c1ccc(F)cc1)n1cc(C(=O)NCc2ccc3c(c2)OCO3)nn1 (stereo not given),inconclusive: -18.9%,
COc1cc2c(cc1O)[C@H]1Cc3ccc(OC)c(O)c3CN1CC2,,"inconclusive: 12.6 µM [rising, single point]"
CCCn1c(=O)c2[nH]c(C3CCCC3)nc2n(CCCOC(=O)c2ccc(S(=O)(=O)F)cc2)c1=O,inactive: 3.06%,
Cc1cc(-c2cc(C)c(N)c(C)c2)cc(C)c1N,inactive: 1.46%,

Structure (SMILES),"activity change, negative = inhibition",Potency
CCCCOCC1CO1 (stereo not given),inactive: -7.47%,
CCOc1ccc2[nH]c(=O)c(CN(CCO)C3(c4nnnn4C4CCCCC4)CCCCC3)cc2c1,inactive: -2.38%,
Cc1cc(C)c(C(=O)CN2CCOCC2)c(C)c1,,active: 25.1 µM
Cc1ccc(CS(=O)(=O)CCC(=O)N2CCC3(CC2)OCCO3)cc1,inactive: 1.11%,
O=c1cccc2n1C[C@@H]1C[C@H]2CN2CCCC[C@H]12,inconclusive: -15.5%,
COC(=O)C(C)Oc1cc(C)cc2oc(=O)c3c(c12)CCC3 (stereo not given),,active: 7.94 µM
CNC(=O)Oc1cccc2ccccc12,inactive: -4.36%,
Cc1cccnc1-n1c(CN2C(=O)c3ccccc3C2=O)nc2ccccc2c1=O,inconclusive: 21.9%,
CCOC(=O)c1cncn1[C@H](C)c1ccccc1,inconclusive: -12.9%,
CCOC(=O)c1cncn1C(C)c1ccccc1 (stereo not given),inconclusive: 18.7% [cytotoxic],
Cc1noc(C)c1C(=O)N1CCC2(CCCN(CC(C)C)C2)CC1,inconclusive: 9.71%,
Cc1nn(Cc2ccccc2Cl)c(Cl)c1C(=O)OCC(=O)NCc1ccco1,inactive: -0.836%,
ClC(Cl)=C(Cl)Cl,inactive,
CN1C(=O)c2ccccc2Sc2ccc(C(=O)N3CCC4(CC3)OCCO4)cc21,inconclusive: -9.66%,
CC1=C2[C@@H]3OC(=O)[C@H](C)[C@H]3CC[C@@]2(C)C=CC1=O,inactive: -4.13%,
CCCCOC(=O)c1ccccc1C(=O)OCCCC,inactive: -18.9%,
C(=NC12CN3CN(CN(C3)C1)C2)c1cccnc1,,"inconclusive: 0.398 µM [rising, full curve, poor fit]"
O=C(c1cc2cc3ccc(Cl)cc3nc2o1)N1CCC2(CC1)OCCO2,,active: 3.16 µM
CC(C)(C)c1cc(C=C(C#N)C#N)cc(C(C)(C)C)c1O,,"inconclusive: 2 µM [falling, full curve]"
CCn1nc(-c2ccccc2)nc2c(=O)n(C)c(=O)nc1-2,inconclusive: -1.97%,
COc1cc2c3cc1Oc1c(O)c(OC)cc4c1[C@@H](Cc1ccc(cc1)Oc1cc(ccc1O)C[C@H]3N(C)CC2)N(C)CC4,inactive: -6.3% [at 7.6 µM],
COCCNC(=O)c1c(NC(=O)c2ccco2)n(Cc2ccccc2)c2nc3ccccc3nc12,,active: 2 µM
